Experimental data as given in ChEMBL document CHEMBL4888484, “Replenishing the malaria drug discovery pipeline: Screening and hit evaluation of the MMV Hit Generation Library 1 (HGL1) against asexual blood stage Plasmodium falciparum ,using a nano luciferase reporter read-out” (2022).
The campaign covered roughly 150,000 compounds. About 540 (0.36%) showed an effect of 50% or more. This is one part of the list.

Tested on: Plasmodium falciparum
Assay: Primary screen in NF54 nanoGlo assay, in single point, at 2uM, 72h; a lower Z score goes with more inhibition
Format: functional, Erythrocyte
Conditions: timepoint 72 hour

Compound	% Inhibition [%]	Z score
CN1CCN(c2cc3c(nn2)Oc2cc(N)ccc2N3C)CC1	30	-3.37
O=C1CN(Cc2ccccc2)[C@@H](c2ccc(C(=O)O)cc2)N1	-7	1.33
CCCCN1CCN(C(=O)c2cc(C(C)C)nn2C)CC1=O	-14	2.03
CC(=O)N[C@H]1C[C@H](c2cc(N3CCN(c4ccccn4)CC3)ncn2)C1	-11	1.65
O=c1ccc(F)cn1Cc1ncc(Cl)cc1Cl	2	-0.28
O=C(Nc1ccc(Cl)cc1F)[C@@H]1Oc2ccccc2NC1=O	-7	0.82
CCc1ccc(NC(=O)CS(=O)(=O)c2ccc3c(c2)S(=O)(=O)N=C(C)N3)cc1	-10	1.52
Cn1cc(S(=O)(=O)NC[C@H]2CCCN2c2ncccn2)cn1	-12	1.72
O=C(N[C@H]1CS(=O)(=O)c2ccccc21)c1cc2c(s1)CCC2	-5	0.53
FC1(F)[C@@H](CN2CCn3ccnc32)[C@@H]1c1ccccc1	-8	1.43
Cc1nc(NCc2cccnc2-n2cnc3ccccc32)cc(C(C)C)n1	5	-0.62
Cn1c(C#N)ccc1C(=O)NC12CCC(C(F)(F)F)(CC1)CC2	-13	2.23
O=C(O)C[C@@H]1CCN(C(=O)COc2ccccc2)C[C@@H]1CCN1CCN(c2ccccc2)CC1	11	-1.24
COc1cn(C)nc1[C@H](C)Nc1cc(C#N)ncn1	7	-1.31
Cc1n[nH]cc1CNC[C@H]1CCCn2ccnc21	-5	0.53
COc1cc([C@H]2C[C@@H]2c2ccccc2)cc(S(N)(=O)=O)c1	-7	0.91
CC[C@](C)(NCC(=O)Nc1cccc(C(C)=O)c1)c1nccs1	5	-0.8
O=C(NCCc1cccs1)c1nc(-c2cnccn2)no1	-17	2.55
COc1ccc(CN2CC[C@@H]3C(=O)NCCCCCCN(Cc4ccncc4)[C@@H]3C2)cc1Cn1ccnc1	59	-7.78
CN=C(NCc1ccccc1F)NC(C)(C)C	-8	1.23
Cc1cc(C)nc(N(C(=O)CCCOc2ccc(Cl)cc2Cl)C(=O)CCCOc2ccc(Cl)cc2Cl)n1	3	-0.36

Compound	% Inhibition [%]	Z score
Cc1cc(CCC(=O)Nc2nc(=O)cn[nH]2)ccc1Br	2	-0.25
CC1CCN(CC(=O)Nc2ccn(-c3ccncc3)n2)CC1	1	-0.23
Cc1ccc(S(=O)(=O)CC#N)c(C)c1	-8	1.46
Cc1ccc(CNC(=O)c2cn(C3CCCCC3)c(=O)c3nnsc23)cc1	-16	2.38
COc1cc(C(=O)NC[C@H]2CCN(c3ccccc3F)C2)ncn1	-10	1.04
O=C(C1CCOC1)N1CCC(c2cccs2)C1 (stereo unspecified)	-7	1.24
Cc1cc(C)n(CCC(=O)N2C[C@H]3COCC[C@@]3(O)[C@@H]3COCC[C@@H]32)n1	-13	2.18
O=C(c1cccc(Cl)c1)N(Cc1ccccc1Cl)[C@H]1CCS(=O)(=O)C1	-15	1.33
CC(=O)N[C@H]1C[C@@H](c2cc(C)cc(F)c2)O[C@@H](C2CCCCC2)C1	-15	2.04
Cn1ncc2cc(C(=O)Nc3cccc(Cn4nc5ccccn5c4=O)c3)cnc21	-11	1.11
O=C(O)Cn1nccc1[C@H]1CCCN(Cc2ccc3[nH]ccc3c2)C1	-2	0.43
O=C(Cn1cc(-c2ccccc2)c2ncn(C3CC3)c(=O)c21)Nc1ccc(F)c(Cl)c1	-8	1.16
O=C(Nc1cccc2[nH]ncc12)c1ccco1	35	-0.8
CCN(C(=O)CCCn1cncn1)c1cc(C)cc(C)c1	-4	0.53
Cc1ncsc1CCN(C)C[C@H](C)N1CCOCC1	-11	2.13
CN(C)c1ccnc(CNC(=O)Nc2ncc(C(F)(F)F)s2)c1	2	-0.3
C=CCN1CC(C(=O)NCCc2ccc(OC)cc2)CCC1c1ccccc1 (stereo unspecified)	5	-0.78
C=CCn1cc(CN[C@@H](CCC)c2nccn2C)c(C)n1	-9	1.85
Cc1nc(-c2cccc(NC(=O)Cc3c(C)noc3C)c2)cs1	17	-2
CC(C)(C)OC(=O)NCC1(c2nc(-c3ccncc3)no2)CCCC1	7	-0.72
Cc1nc(C#N)c(C#N)n1Cc1ccccn1	-7	1.35

Compound	% Inhibition [%]	Z score
CN1CCCC[C@@H]1CN1CCN(S(=O)(=O)c2cccs2)CC1	-12	1.54
COCCc1noc([C@@H]2CCCN2C(=O)c2ccc(C#CC(C)(C)O)cc2)n1	-14	1.87
CN1CCCC1C1CCCN1C(=O)C1COc2ccccc2C1 (stereo unspecified)	-8	1.07
COCCc1nsc(Oc2cc(F)ccc2C)n1	-8	1.08
CCOC(=O)CCNS(=O)(=O)C1CCOC(C(F)(F)F)C1 (stereo unspecified)	-3	0.56
CCOc1ncccc1C(=O)Nc1ccccc1-c1ccccc1	-6	0.47
CN1CCC2C(CCCN2C(=O)Nc2cc(Cl)ccc2Cl)C1 (stereo unspecified)	-15	2.88
Cn1cc(S(=O)(=O)N[C@H]2CCN(c3ccc4nncn4n3)C2)cn1	-13	2.08
O=C(N[C@H]1CCCC[C@@H]1OCc1ccccc1)c1n[nH]c2c1CCCC2	-1	0.13
C[C@@H](COc1ccccc1)N1CCC(CCC(=O)NCc2ccc(F)cc2)CC1	-5	0.64
COc1cc(N[C@@H](C)C(=O)NCC(F)(F)F)cc(OC)c1OC	-8	0.98
NC(=NO[C@H]1CCN(C2CCOCC2)C1=O)c1ccc(F)cc1	-5	0.81
CC[C@H](Nc1ccc(CS(=O)(=O)C(C)C)cc1)C(N)=O	-7	1.23
O=C(N[C@H](c1ccccc1)c1cc2ccccc2o1)c1cnccn1	-3	0.49
CCO[C@H]1[C@H](NC(=O)c2ccccc2OC)c2ccccc2C12CCNCC2	2	-0.31
CCC[C@H](C)c1nc(N2CCN(C(=O)Cc3ccc(OC)cc3)CC2)c2c(C)nn(-c3ccc(F)cc3)c2n1	-9	1.35
COc1cc(Cl)c(C)cc1-n1ccnc(NCCCc2ccccc2)c1=O	-2	0.18
Cc1noc(C)c1CC(=O)N1CC(c2ncc(C)n2Cc2ccccc2)C1	-5	0.63
O=C(Nc1cnc(Oc2ccccc2)nc1)c1cnccn1	-6	1.22
CCc1cnc(C)nc1NC[C@H]1CCCN(CCO)C1	-8	1.5
Cn1c(=O)[nH]c(=O)c2c1nc(N1CCCCCC1)n2C[C@H](O)c1ccccc1	1	-0.09

Compound	% Inhibition [%]	Z score
Cc1cc(=O)c2cccc(C(=O)N3CCC(O)CC3)c2[nH]1	8	-1.5
COc1cccc(CN2CC[C@@]3(C2)C(=O)N(CC(N)=O)c2ccccc23)c1	6	-1.16
CC(=O)Nc1c2n(c3ccccc13)C[C@@](C)(C(=O)NC1CCCCCC1)N(C1CCC(C)CC1)C2=O (stereo partly specified)	-8	0.74
Cn1c(CN2CCO[C@H](c3cccnc3)C2)cc2ccccc21	-6	0.76
CS(=O)(=O)N1CCC[C@H](CNC(=O)Nc2ccc(-c3ccco3)cc2)C1	-19	3.04
O=C1C(=O)N(C2CCCCC2)C(=O)N1C1CCCCC1	-17	2.16
CC1CCN(C(=O)c2cc(NC(=O)c3cc(C(F)(F)F)cc(C(F)(F)F)c3)ccc2N2CCC(C)CC2)CC1	-13	2.53
Cc1ccc(-c2nc(Cn3nnc(-c4nc(-c5ccc(Cl)cc5)no4)c3C)c(C)o2)cc1	2	-0.23
CN1CCN(C(=O)C2C3C(=O)N(CCOc4ccccc4)C[C@@]34C=C[C@@H]2O4)CC1=O (stereo partly specified)	-10	1.33
Cc1c(S(=O)(=O)NCc2cccn2Cc2ccccc2)cnn1C(F)F	2	-0.2
CC(NC(C)C(O)Cc1ccccc1)c1ccco1 (stereo unspecified)	2	-0.16
CCOc1ccc(S(=O)(=O)N(C)C)cc1NC(=O)Nc1cnn(CC(C)C)c1	-9	0.94
COCCn1nnc2cc(S(=O)(=O)N3CCC[C@H](C(=O)NCc4ccccc4F)C3)ccc21	-15	2.38
O=C(NCC1(CN2CCCC2)CC1)[C@H](O)C1CCCCC1	5	-0.71
O=C(COc1cccc(Cl)c1)c1ccc2c(c1)N(Cc1nc(C(=O)NCC3CC3)co1)C(=O)CO2	-8	0.95
Cc1cc(C(=O)N2CCC[C@H](c3nc(-c4ccc(F)cc4)no3)C2)cnn1	-4	0.64
O=C1c2ccccc2C(=O)N1n1c(COc2ccccc2)nc2ccccc2c1=O	-41	4.8
CC[C@H](NC(=O)c1cnc2ccccn2c1=O)c1ccc(S(C)(=O)=O)cc1	0	0.05
Fc1cccc(-c2cc3c(N4CCOCC4)nccn3n2)c1	11	-1.25
Cc1cccc(NC(=O)c2cccc(Nc3nc(-c4ccccc4)c4cc(Br)ccc4n3)c2)c1	-7	1.22
